# Data as given in the supplement of paper PMC8728848.
# The list shows a part of the results.
# B1: Gal 3 (Homo sapiens), P17931 (protein)
# chain: MADNFSLHDALSGSGNPNPQGWPGAWGNQPAGAGGYPGASYPGAYPGQAPPGAYPGQAPPGAYHGAPGAYPGAPAPGVYPGPPSGPGAYPSSGQPSAPGAYPATGPYGAPAGPLIVPYNLPLPGGVVPRMLITILGTVKPNANILDFQRGNDVAFHFNPRFNENNRRVIVCNTLLDNNWGREERQSVFPFESGKPFKIQVLVEPDHFKVAVNDAHLLQYNHRVKKLNEISKLGISGDIDLTSASYTMI
# What was measured:
# Experiment in all cases: glycan array binding signal (z-score within array); higher = stronger binding
# Details in all cases: glycan notation: IUPAC condensed, linker removed; mutation: K176L
# [1] = target: GalNAc(b1-3)Gal(a1-4)Gal(b1-4)GlcNAc
# Summary of the method: (§1)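 The binding signal is a Z-score computed within each array. Data were drawn from 3228 arrays in the Consortium for Functional Glycomics database, restricted to those with a known protein sequence. Scores were averaged over arrays of the same protein sequence at different concentrations or buffers, and over linkers, and negative values can be taken as non-binding.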
# [2] = target: GalNAc(b1-3)Gal(a1-4)Gal(b1-4)GlcNAc(b1-3)Gal(b1-4)Glc
# Summary of the method: as §1
# [3] = target: GalNAc(b1-3)Gal(a1-6)Gal(b1-4)Glc
# Summary of the method: as §1
# [4] = target: GalNAc(b1-3)GalNAc
# Summary of the method: as §1
# [5] = target: GalNAc(b1-4)GlcNAc
# Summary of the method: as §1
# [6] = target: GalNAc(b1-4)GlcNAc(b1-2)Man(a1-3)[GalNAc(b1-4)GlcNAc(b1-2)Man(a1-6)]Man(b1-4)GlcNAc(b1-4)GlcNAc
# Summary of the method: as §1
# [7] = target: Glc(a1-4)Glc
# Summary of the method: as §1
# [8] = target: Glc(a1-6)Glc(a1-6)Glc
# Summary of the method: as §1
# [9] = target: Glc(b1-4)Glc
# Summary of the method: as §1
# [10] = target: Glc(b1-6)Glc
# Summary of the method: as §1
# [11] = target: GlcA(b1-3)Gal
# Summary of the method: as §1
# [12] = target: GlcA(b1-3)GlcNAc
# Summary of the method: as §1
# [13] = target: GlcA(b1-6)Gal
# Summary of the method: as §1
# [14] = target: GlcNAc(a1-3)Gal(b1-4)GlcNAc
# Summary of the method: as §1
# [15] = target: GlcNAc(a1-4)Gal(b1-3)GlcNAc
# Summary of the method: as §1
# [16] = target: GlcNAc(a1-4)Gal(b1-4)GalNAc
# Summary of the method: as §1
# [17] = target: GlcNAc(a1-4)Gal(b1-4)GlcNAc
# Summary of the method: as §1
# [18] = target: GlcNAc(a1-4)Gal(b1-4)GlcNAc(b1-3)Gal(b1-4)Glc
# Summary of the method: as §1
# [19] = target: GlcNAc(a1-4)Gal(b1-4)GlcNAc(b1-3)Gal(b1-4)GlcNAc
# Summary of the method: as §1
# [20] = target: GlcNAc(a1-4)Gal(b1-4)GlcNAc(b1-3)Gal(b1-4)GlcNAc(b1-3)Gal(b1-4)GlcNAc
# Summary of the method: as §1
# [21] = target: GlcNAc(a1-4)Gal(b1-4)GlcNAc(b1-3)Gal(b1-4)[Fuc(a1-3)]GlcNAc(b1-3)Gal(b1-4)[Fuc(a1-3)]GlcNAc
# Summary of the method: as §1
# [22] = target: GlcNAc(a1-6)Gal(b1-4)GlcNAc
# Summary of the method: as §1
# [23] = target: GlcNAc(b1-2)Gal(b1-3)GalNAc
# Summary of the method: as §1
# [24] = target: GlcNAc(b1-2)Man(a1-3)[GlcNAc(b1-2)Man(a1-6)]Man(b1-4)GlcNAc(b1-4)GlcNAc
# Summary of the method: as §1
# [25] = target: GlcNAc(b1-2)Man(a1-3)[GlcNAc(b1-2)Man(a1-6)]Man(b1-4)GlcNAc(b1-4)[Fuc(a1-6)]GlcNAc
# Summary of the method: as §1
# [26] = target: GlcNAc(b1-2)[GlcNAc(b1-4)]Man(a1-3)[GlcNAc(b1-2)Man(a1-6)]Man(b1-4)GlcNAc(b1-4)GlcNAc
# Summary of the method: as §1
# [27] = target: GlcNAc(b1-3)Gal
# Summary of the method: as §1
# [28] = target: GlcNAc(b1-3)Gal(b1-3)GalNAc
# Summary of the method: as §1
# [29] = target: GlcNAc(b1-3)Gal(b1-4)Glc
# Summary of the method: as §1
# [30] = target: GlcNAc(b1-3)Gal(b1-4)GlcNAc
# Summary of the method: as §1
# [31] = target: GlcNAc(b1-3)Gal(b1-4)GlcNAc(b1-3)Gal(b1-4)GlcNAc
# Summary of the method: as §1
# [32] = target: GlcNAc(b1-3)GalNAc
# Summary of the method: as §1
# [33] = target: GlcNAc(b1-3)Man
# Summary of the method: as §1
# [34] = target: GlcNAc(b1-3)[GlcNAc(b1-4)][GlcNAc(b1-6)]GlcNAc
# Summary of the method: as §1
# [35] = target: GlcNAc(b1-3)[GlcNAc(b1-6)]Gal(b1-4)GlcNAc
# Summary of the method: as §1
# [36] = target: GlcNAc(b1-3)[GlcNAc(b1-6)]GalNAc
# Summary of the method: as §1
# [37] = target: GlcNAc(b1-4)Gal(b1-4)GlcNAc
# Summary of the method: as §1
# [38] = target: GlcNAc(b1-4)GlcNAc
# Summary of the method: as §1
# [39] = target: GlcNAc(b1-4)GlcNAc(b1-4)GlcNAc
# Summary of the method: as §1
# [40] = target: GlcNAc(b1-4)GlcNAc(b1-4)GlcNAc(b1-4)GlcNAc(b1-4)GlcNAc
# Summary of the method: as §1
# [41] = target: GlcNAc(b1-4)GlcNAc(b1-4)GlcNAc(b1-4)GlcNAc(b1-4)GlcNAc(b1-4)GlcNAc
# Summary of the method: as §1
# [42] = target: GlcNAc(b1-4)[GlcNAc(b1-6)]GalNAc
# Summary of the method: as §1
# [43] = target: GlcNAc(b1-6)Gal(b1-4)GlcNAc
# Summary of the method: as §1
# [44] = target: GlcNAc(b1-6)GalNAc
# Summary of the method: as §1
# [45] = target: GlcNAc3Prop(b1-4)GlcNAc
# Summary of the method: as §1
binder,measurement,setting,value
B1,glycan array binding signal (z-score),[1],-0.269
same,glycan array binding signal (z-score),[2],0.854
same,glycan array binding signal (z-score),[3],-0.27
same,glycan array binding signal (z-score),[4],-0.27
same,glycan array binding signal (z-score),[5],-0.271
same,glycan array binding signal (z-score),[6],-0.26
same,glycan array binding signal (z-score),[7],-0.269
same,glycan array binding signal (z-score),[8],-0.269
same,glycan array binding signal (z-score),[9],-0.274
same,glycan array binding signal (z-score),[10],-0.268
same,glycan array binding signal (z-score),[11],-0.26
same,glycan array binding signal (z-score),[12],-0.271
same,glycan array binding signal (z-score),[13],-0.267
same,glycan array binding signal (z-score),[14],-0.27
same,glycan array binding signal (z-score),[15],-0.259
same,glycan array binding signal (z-score),[16],-0.262
same,glycan array binding signal (z-score),[17],-0.264
same,glycan array binding signal (z-score),[18],-0.263
same,glycan array binding signal (z-score),[19],1.57
same,glycan array binding signal (z-score),[20],5.87
same,glycan array binding signal (z-score),[21],-0.241
same,glycan array binding signal (z-score),[22],-0.269
same,glycan array binding signal (z-score),[23],-0.268
same,glycan array binding signal (z-score),[24],-0.269
same,glycan array binding signal (z-score),[25],-0.259
same,glycan array binding signal (z-score),[26],-0.266
same,glycan array binding signal (z-score),[27],-0.27
same,glycan array binding signal (z-score),[28],-0.272
same,glycan array binding signal (z-score),[29],-0.271
same,glycan array binding signal (z-score),[30],-0.18
same,glycan array binding signal (z-score),[31],4.87
same,glycan array binding signal (z-score),[32],-0.27
same,glycan array binding signal (z-score),[33],-0.265
same,glycan array binding signal (z-score),[34],-0.264
same,glycan array binding signal (z-score),[35],-0.271
same,glycan array binding signal (z-score),[36],-0.271
same,glycan array binding signal (z-score),[37],-0.261
same,glycan array binding signal (z-score),[38],-0.264
same,glycan array binding signal (z-score),[39],-0.271
same,glycan array binding signal (z-score),[40],-0.269
same,glycan array binding signal (z-score),[41],-0.272
same,glycan array binding signal (z-score),[42],-0.273
same,glycan array binding signal (z-score),[43],-0.269
same,glycan array binding signal (z-score),[44],-0.268
same,glycan array binding signal (z-score),[45],-0.272
